According to PubChem BioAssay AID1347430 (National Center for Advancing Translational Sciences (NCATS), 2020):
The whole screen tested about 91,000 compounds, of which about 130 (0.14%) were called active. The inconclusive results got no clear call from the source; some entries with a clear call stand among them for comparison. The call rests on the fitted dose curve; in most records, active means well fitted inhibition curve with a large enough effect; inconclusive means small, poorly fitted or top-dose-only effect; inactive means flat fitted curve, though single readings scatter. Potencies of inconclusive entries are doubtful fits and often do not repeat.

System: Uracil-DNA glycosylase
Assay: Primary qHTS assay for inhibitors of Activation Induced Cytidine Deaminase (AID): UDG Counterscreen signal; further: nearly all actives have a fitted effect of over 65% in size
Settings: FRET deamination/UDG coupled assay, UDG read, 4 h; series mostly up to 115 µM
Potency means the concentration at half of the fitted maximal effect; tags describe the fitted curve by direction and shape.

Structure (SMILES)	Potency
CCCn1nc(C(=O)Nc2ncc(Cc3ccc(Cl)cc3)s2)ccc1=O	inactive
CCOCCCNc1ncnc2onc(C)c12	inactive
O=C1C2CCCN2C(=O)N1Cc1coc(-c2ccccc2)n1 (stereo unspecified)	inactive
COc1ccc(NC(=O)c2nnn(CC(=O)Nc3ccc(C)c(C)c3)c2N)cc1OC	inactive
COc1ccc(C(=O)Nc2cccc(/C=C(/C#N)C(=O)NC3CC3)c2)cc1	inactive
Cc1ccc(-c2c(C(=O)O)sc3c2cnc2ccc(C)cc23)cc1	inactive
COc1ccc(NC(=O)Cn2cc(C(=O)c3ccccc3OC)c(=O)c3ccc(C)nc32)cc1OC	inconclusive: 89.1 µM [inhibitor, single point]
CC(C)C(NC(=O)c1cccc(S(=O)(=O)N(C)C)c1)c1ccc2c(c1)OCCCO2 (stereo unspecified)	inactive
Cc1ccc(C)c(NC(=O)/C(C#N)=C/c2ccc(C(C)C)cc2)c1	inconclusive: 89.1 µM [inhibitor, single point]
N#Cc1ccc(COC(=O)c2ccccc2-c2ccccc2C#N)cc1	inactive
COc1ccccc1/C=C/c1nc(C#N)c(NCC(C)C)o1	inconclusive: 2.82 µM [inhibitor, full curve, poor fit]
O=C(Nc1c(Cl)cc(Cl)cc1Cl)C12CC3CC(CC(Cl)(C3)C1)C2	inactive
CCc1ccc(-c2c(C)sc(N)c2C#N)cc1	inactive
CCn1cc2c(n1)-c1c(oc(C(=O)Nc3ccc(Br)cc3F)c1C)CC2	inconclusive: 39.8 µM [inhibitor, single point]
Cc1cc(C)cc(OCC(=O)Nc2cccc3cccnc23)c1	inconclusive: 89.1 µM [inhibitor, single point]
COc1ccc(SCCCCO)cc1	inactive
CC(C)N(Cc1ccccc1)C(=O)c1nc(-c2ccc(Cl)cc2)n2c1CCCCC2	inconclusive: 89.1 µM [inhibitor, single point]
COc1cccc(C(=O)Nc2ccc3nc(SCC(=O)N(C)c4ccccc4)sc3c2)c1	inconclusive: 89.1 µM [inhibitor, single point]
O=S1(=O)CCN2C(c3ccccc3Cl)=CSC2=N1	inconclusive: 89.1 µM [inhibitor, single point]
CC1=CC(C)C2(COC(CC(C)C)OC2)C(C)C1 (stereo unspecified)	inactive
CCCCn1c(NCc2cc(Br)ccc2O)nc2ccccc21	inactive
NS(=O)(=O)c1ccc(NC(=O)c2ccc([N+](=O)[O-])cc2[N+](=O)[O-])cc1	inactive
CCC(C)Nc1oc(-c2ccc(COc3ccc(Cl)cc3)o2)nc1C#N (stereo unspecified)	inactive
CCN(CC)c1nc2c(S(=O)(=O)c3cccc(Cl)c3)nnn2c2ccsc12	inconclusive: 89.1 µM [inhibitor, single point]

Structure (SMILES)	Potency
Cc1cccc(OCC(=O)Nc2cc(-c3nn(C)c(=O)c4ccccc34)ccc2N2CCOCC2)c1	active: 89.1 µM
Cc1ccc(C(=O)C(C)C(=O)c2ccc(C)cc2)cc1	inactive
COc1cc(NC(=O)N2CCC3(CC2)Nc2cc(F)ccc2-n2cccc23)cc(OC)c1OC	inconclusive: 79.4 µM [inhibitor, partial curve, poor fit]
COc1cccc(CNC(=O)c2ccc(C(F)(F)F)cc2)c1	inactive
Cc1ccc(CNC(=O)c2ccc(-c3nc(CS(=O)c4ccccc4)c(C)o3)cc2)cc1 (stereo unspecified)	inactive
O=S(=O)(c1ccc(Br)cc1)N1CCN(C/C=C/c2ccccc2)CC1	inconclusive: 89.1 µM [inhibitor, single point]
COCCn1ccc2c(OCC(=O)Nc3ccccc3F)cccc2c1=O	inconclusive: 89.1 µM [inhibitor, single point]
Cc1ccc(C)c(OCc2ccc(-c3nc(C#N)c(NC(C)C)o3)o2)c1	active: 70.8 µM
O=C(O)CCN1CCN(CCC(=O)O)CC1	inactive
C=C(C)COc1ccc2c(=O)c(Oc3ccc(C(=O)OCC)cc3)coc2c1	inactive
CC(C)C(CNC(=O)Cc1n[nH]c(=O)c2ccccc12)N1CCOCC1 (stereo unspecified)	inactive
O=C(CC1N=C2c3ccccc3N=C(SCc3cccc(F)c3)N2C1=O)NCc1ccc2c(c1)OCO2 (stereo unspecified)	inconclusive: 89.1 µM [inhibitor, partial curve, poor fit]
COC(=O)c1ccc(CSc2nc3c(c(=O)[nH]2)CCC3)cc1	inconclusive: 39.8 µM [inhibitor, single point]
O=C(CCNS(=O)(=O)c1ccc2c(c1)CCN2C(=O)C1CC1)N1CCN(c2ccccc2F)CC1	inactive
CCN(C(=O)CSc1nc2ccccc2n1CC(=O)Nc1ccccc1C)c1ccccc1	inconclusive: 100 µM [inhibitor, single point]
Cc1ccc(CNc2ccc(O)cc2)s1	inconclusive: 44.7 µM [inhibitor, partial curve, poor fit]
CCOC(=O)c1sc(NC(=O)c2nc3ncccn3n2)c(C(=O)OC)c1C	inconclusive: 2.82 µM [inhibitor, full curve, poor fit]
C=C(C)CSc1nc2sc3c(c2c(=O)n1CCCC)CCCC3	inconclusive: 100 µM [inhibitor, partial curve, poor fit]
CCCC(O)c1nc2ccccc2n1CCCCOc1ccc(OC)cc1 (stereo unspecified)	inconclusive: 100 µM [inhibitor, single point]
Cc1nn(Cc2ccc(Cl)cc2)c(C)c1NC(=O)c1noc2c1CCc1ccccc1-2	inconclusive: 89.1 µM [inhibitor, single point]
CCCCCCOc1ccc(CNc2cccc3ccccc23)cc1	inconclusive: 12.6 µM [inhibitor, full curve]
COc1ccc2c(c1)CCc1c(C(=O)Nc3ccccc3C(F)(F)F)noc1-2	inconclusive: 100 µM [inhibitor, single point]
COc1cccc(CNC(=O)Cn2cc3c(n2)-c2c(oc(C(=O)N4CCCC4)c2C)CC3)c1	inconclusive: 50.1 µM [inhibitor, partial curve, poor fit]
CCOC(=O)c1sc(N)c(C#N)c1CSCc1ccccc1	inactive

Structure (SMILES)	Potency
Cc1cccc(-c2noc(-c3ccc(NCC4CCCO4)c([N+](=O)[O-])c3)n2)c1 (stereo unspecified)	inconclusive: 100 µM [inhibitor, single point]
COC(=O)c1ccccc1NC(=O)CSc1nnc(-c2ccc(Cl)cc2)n1Cc1ccco1	inactive
CN(C)CCN1C(=O)C(O)=C(C(=O)c2cc3ccccc3o2)C1c1ccc(OCc2ccccc2)cc1 (stereo unspecified)	inconclusive: 89.1 µM [inhibitor, single point]
COc1ccc(-c2nn(C)c3sc(C(=O)N4CCN(c5ccccc5F)CC4)cc23)cc1OC	active: 89.1 µM
CCC(=O)Oc1c(Sc2ccc(Cl)cc2)c(C)nn1C(C)(C)C	active: 79.4 µM
COc1ccc2c(c1)c1c(c(=O)n(-c3cccc(C)c3)c(=O)n1CC(=O)Nc1c(C)cc(C)cc1C)n2C	inconclusive: 89.1 µM [inhibitor, single point]
COc1ccccc1/C=C(/C#N)C(=O)c1c(Cl)cccc1Cl	inactive
Nc1c(C(=O)Nc2cccc(Cl)c2)sc2nc3c(cc12)CN(Cc1ccccc1)CC3	inconclusive: 100 µM [inhibitor, partial curve, poor fit]
COc1ccc(NC(=O)C2(c3cccs3)CCOCC2)cc1Cl	inconclusive: 89.1 µM [inhibitor, single point]
COc1cccc(N2CCN(C(=O)c3c(C)oc4ncnc(N5CCCCC5)c34)CC2)c1	inconclusive: 100 µM [inhibitor, partial curve, poor fit]
CCCNC(=O)COc1nc2ccccc2nc1N1CCOCC1	inconclusive: 89.1 µM [inhibitor, single point]
CCOc1ccc(NC(=O)CSC2=Nc3ccccc3C3=NC(CC(=O)NCc4ccc5c(c4)OCO5)C(=O)N23)cc1 (stereo unspecified)	inconclusive: 100 µM [inhibitor, single point]
COc1ccc(-c2nc3ccccc3n2Cc2ccc(Cl)cc2)cc1	inconclusive: 89.1 µM [inhibitor, partial curve, poor fit]
CCCCCCCc1c(C(=O)O)c2ccccc2c2ccccc12	inactive
Cc1ccc(-c2cc(C(=O)N(Cc3ccccc3)Cc3ccco3)no2)cc1F	inconclusive: 89.1 µM [inhibitor, partial curve, poor fit]
COc1cccc(NC(=O)CSC2=Nc3ccccc3C3=NC(CCC(=O)NCc4ccco4)C(=O)N23)c1 (stereo unspecified)	inconclusive: 89.1 µM [inhibitor, single point]
COC(=O)c1cc(C)sc1NC(=O)CC1Sc2ccc(C(F)(F)F)cc2NC1=O (stereo unspecified)	inconclusive: 89.1 µM [inhibitor, single point]
COc1ccc(OC)c(-c2noc(CSc3nnc(Cc4ccccc4)n3-c3cccc(C)c3)n2)c1	inconclusive: 39.8 µM [inhibitor, partial curve, poor fit]
COc1ccc2cc(C(=O)Nc3ccc(Nc4ccccc4)cc3)[nH]c2c1	inactive
COc1cccc(CNC(=O)c2cccc(-n3c(C)nc4cccnc43)c2C)c1	inconclusive: 100 µM [inhibitor, single point]
CCCCCC(C)NC(=O)Nc1cc(C(F)(F)F)ccc1Cl (stereo unspecified)	inactive
CN(C)c1ccc(NC(=O)Cn2nnc3sc4c(c3c2=O)CCC(C(C)(C)C)C4)cc1 (stereo unspecified)	inconclusive: 70.8 µM [inhibitor, partial curve, poor fit]
Cc1ccc(NS(=O)(=O)c2cc(-c3cc(C)no3)ccc2C)c(Cl)c1	inconclusive: 89.1 µM [inhibitor, single point]
